{
  "source": "PubChem BioAssay AID1259407",
  "about": "(Chemical Carcinogenesis Research Information System (CCRIS), 2018)",
  "tested_on": "CCRIS mutagenicity, Ames/micronucleus/aberration tests",
  "test": "CCRIS mutagenicity studies",
  "conditions": "Test System: AMES SALMONELLA TYPHIMURIUM",
  "key": {"[1]": {"conditions": "Strain/Indicator: TA98, Metabolic Activation: NONE, Method: PREINCUBATION"}},
  "note": "Not every entry of the source has a single result; some have several. This list holds those alone. The rule behind the calls is not given here. There may be further records. Values given together are repeated measurements in other runs, samples, wells, individuals or studies. A tag in brackets gives the origin of a value. The letters are not those of the source and start again with each entry.",
  "data": [
    {"smiles": "Oc1cc2c3ccccc3ccc2c2ccccc12", "values": [
      {"measurement": "mutagenic call", "setting": "Strain/Indicator: TA100, Metabolic Activation: RAT, LIVER, S-9, AROCLOR 1254, Method: STANDARD PLATE", "value": "active; positive [study A, 0 to 50 µg/plate] and inactive; negative [study B, 0 to 50 µg/plate]"}
    ]},
    {"smiles": "O=C1c2cc(O)cc(O)c2C(=O)c2c(O)cc(CO)cc21", "values": [
      {"measurement": "mutagenic call", "setting": "Strain/Indicator: TA1537, Metabolic Activation: NONE, Method: STANDARD PLATE", "value": "active; positive [study A, 2 to 50 µg/plate] and inactive; negative [study B, 10 to 100 µg/plate]"}
    ]},
    {"smiles": "Nc1ccc(N)c2ccccc12", "values": [
      {"measurement": "mutagenic call", "setting": "Strain/Indicator: TA98, Metabolic Activation: HAMSTER, LIVER, S-9, AROCLOR 1254 (10%), Method: PREINCUBATION", "value": "inactive; negative [study A, 33 to 3333 µg/plate] and active; positive [study B, 3 to 33 µg/plate]"},
      {"measurement": "mutagenic call", "setting": "Strain/Indicator: TA100, Metabolic Activation: HAMSTER, LIVER, S-9, AROCLOR 1254 (10%), Method: PREINCUBATION", "value": "inactive; negative [study A, 33 to 3333 µg/plate] and active; positive [study B, 3 to 66 µg/plate]"},
      {"measurement": "mutagenic call", "setting": "Strain/Indicator: TA100, Metabolic Activation: NONE, Method: PREINCUBATION", "value": "inactive; negative [study A, 0.33 to 33 µg/plate] and active; positive [study B, 3 to 11 µg/plate]"}
    ]},
    {"smiles": "CCN(CC)N=O", "values": [
      {"measurement": "mutagenic call", "setting": "Strain/Indicator: TA100, Metabolic Activation: RAT, LIVER, S-9, Method: STANDARD PLATE", "value": "inactive; negative [study A] and active; positive [study B]"}
    ]},
    {"smiles": "Nc1ccc2ccccc2c1", "values": [
      {"measurement": "mutagenic call", "setting": "Strain/Indicator: TA1538, Metabolic Activation: RAT, LIVER, S-9, AROCLOR 1254, Method: STANDARD PLATE", "value": "inactive; negative [study A] and active; positive [study B]"}
    ]},
    {"smiles": "O=C(Cl)c1ccccc1[N+](=O)[O-]", "values": [
      {"measurement": "mutagenic call", "setting": "[1]", "value": "inactive; negative [study A, 0 to 1000 µg/plate] and active; positive [study B, 10 to 1000 µg/plate]"}
    ]},
    {"smiles": "CCCCC(CC)COCC1CO1", "note": "(stereo not given)", "values": [
      {"measurement": "mutagenic call", "setting": "Strain/Indicator: TA100, Metabolic Activation: RAT, LIVER, S-9, AROCLOR 1254 (10%), Method: PREINCUBATION", "value": "inactive; negative [study A] and active; positive [study B]"}
    ]},
    {"smiles": "O=C(O)c1ccc([N+](=O)[O-])cc1[N+](=O)[O-]", "values": [
      {"measurement": "mutagenic call", "setting": "[1]", "value": "active; positive [study A] and inactive; negative [study B]"}
    ]}
  ]
}
